{"source": "paper PMC12214610", "details_in_all_cases": "virion", "key": {"COPS7B": {"target": "COPS7B (UniProt Q9H9Q2)", "sequence (Q9H9Q2 whole entry)": "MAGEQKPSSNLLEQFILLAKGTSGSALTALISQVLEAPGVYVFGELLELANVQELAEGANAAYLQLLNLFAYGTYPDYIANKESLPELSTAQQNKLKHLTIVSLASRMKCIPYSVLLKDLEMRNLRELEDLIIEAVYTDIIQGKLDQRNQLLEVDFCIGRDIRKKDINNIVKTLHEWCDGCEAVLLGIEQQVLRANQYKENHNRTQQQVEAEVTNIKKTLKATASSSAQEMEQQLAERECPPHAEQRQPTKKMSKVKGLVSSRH"}, "CALR": {"target": "CALR (UniProt P27797)", "sequence (P27797 whole entry)": "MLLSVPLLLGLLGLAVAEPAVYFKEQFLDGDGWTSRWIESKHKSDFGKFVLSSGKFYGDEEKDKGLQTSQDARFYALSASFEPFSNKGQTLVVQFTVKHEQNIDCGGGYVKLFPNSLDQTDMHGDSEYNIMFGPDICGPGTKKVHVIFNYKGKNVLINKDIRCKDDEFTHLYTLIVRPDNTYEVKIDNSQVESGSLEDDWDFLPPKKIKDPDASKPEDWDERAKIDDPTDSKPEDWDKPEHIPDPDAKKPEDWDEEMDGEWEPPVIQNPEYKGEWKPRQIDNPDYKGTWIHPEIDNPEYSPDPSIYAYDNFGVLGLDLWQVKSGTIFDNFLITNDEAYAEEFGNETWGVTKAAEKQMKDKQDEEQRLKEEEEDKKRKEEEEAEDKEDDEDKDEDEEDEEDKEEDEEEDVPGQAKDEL"}, "CHMP1B": {"target": "CHMP1B (UniProt Q7LBR1)"}, "CHMP2B": {"target": "CHMP2B (UniProt Q9UQN3)", "sequence (Q9UQN3 whole entry)": "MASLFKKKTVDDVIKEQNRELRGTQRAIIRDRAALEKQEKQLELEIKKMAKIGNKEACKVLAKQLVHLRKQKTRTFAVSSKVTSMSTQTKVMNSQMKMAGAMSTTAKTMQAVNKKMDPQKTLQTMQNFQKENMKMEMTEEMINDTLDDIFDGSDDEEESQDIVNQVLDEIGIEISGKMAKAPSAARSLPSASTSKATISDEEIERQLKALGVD"}, "DCTN2": {"target": "DCTN2 (UniProt Q13561)"}, "CCT7": {"target": "CCT7 (UniProt Q99832)", "sequence (Q99832 whole entry)": "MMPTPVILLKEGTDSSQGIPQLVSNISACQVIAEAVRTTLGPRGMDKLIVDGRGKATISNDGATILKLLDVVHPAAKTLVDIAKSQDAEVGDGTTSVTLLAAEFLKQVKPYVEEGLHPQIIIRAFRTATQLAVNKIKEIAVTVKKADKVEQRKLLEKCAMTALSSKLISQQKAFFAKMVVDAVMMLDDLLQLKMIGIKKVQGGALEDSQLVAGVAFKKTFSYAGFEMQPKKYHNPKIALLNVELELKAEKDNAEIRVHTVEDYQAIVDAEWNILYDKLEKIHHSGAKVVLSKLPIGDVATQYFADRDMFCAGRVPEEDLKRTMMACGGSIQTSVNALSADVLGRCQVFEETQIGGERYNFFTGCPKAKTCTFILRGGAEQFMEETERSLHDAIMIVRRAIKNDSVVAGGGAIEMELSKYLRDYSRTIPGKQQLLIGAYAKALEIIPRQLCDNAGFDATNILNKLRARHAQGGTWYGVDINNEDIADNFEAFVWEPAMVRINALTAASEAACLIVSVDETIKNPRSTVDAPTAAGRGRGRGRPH"}, "CCT2": {"target": "CCT2 (UniProt P78371)", "sequence (P78371 whole entry)": "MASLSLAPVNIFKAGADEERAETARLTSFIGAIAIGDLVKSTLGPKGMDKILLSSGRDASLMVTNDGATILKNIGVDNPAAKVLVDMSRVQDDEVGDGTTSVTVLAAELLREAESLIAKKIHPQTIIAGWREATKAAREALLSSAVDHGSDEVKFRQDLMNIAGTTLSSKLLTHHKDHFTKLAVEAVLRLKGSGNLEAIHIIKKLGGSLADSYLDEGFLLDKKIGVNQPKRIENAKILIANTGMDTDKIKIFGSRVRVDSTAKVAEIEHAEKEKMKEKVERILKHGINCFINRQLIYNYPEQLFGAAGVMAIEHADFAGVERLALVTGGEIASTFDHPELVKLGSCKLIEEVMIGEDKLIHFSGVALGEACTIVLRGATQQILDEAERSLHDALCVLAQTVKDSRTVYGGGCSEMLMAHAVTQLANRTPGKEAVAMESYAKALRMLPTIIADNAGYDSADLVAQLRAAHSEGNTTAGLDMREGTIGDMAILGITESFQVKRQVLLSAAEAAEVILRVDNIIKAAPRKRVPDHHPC"}, "CLTC": {"target": "CLTC (UniProt Q00610)", "sequence (Q00610 whole entry)": "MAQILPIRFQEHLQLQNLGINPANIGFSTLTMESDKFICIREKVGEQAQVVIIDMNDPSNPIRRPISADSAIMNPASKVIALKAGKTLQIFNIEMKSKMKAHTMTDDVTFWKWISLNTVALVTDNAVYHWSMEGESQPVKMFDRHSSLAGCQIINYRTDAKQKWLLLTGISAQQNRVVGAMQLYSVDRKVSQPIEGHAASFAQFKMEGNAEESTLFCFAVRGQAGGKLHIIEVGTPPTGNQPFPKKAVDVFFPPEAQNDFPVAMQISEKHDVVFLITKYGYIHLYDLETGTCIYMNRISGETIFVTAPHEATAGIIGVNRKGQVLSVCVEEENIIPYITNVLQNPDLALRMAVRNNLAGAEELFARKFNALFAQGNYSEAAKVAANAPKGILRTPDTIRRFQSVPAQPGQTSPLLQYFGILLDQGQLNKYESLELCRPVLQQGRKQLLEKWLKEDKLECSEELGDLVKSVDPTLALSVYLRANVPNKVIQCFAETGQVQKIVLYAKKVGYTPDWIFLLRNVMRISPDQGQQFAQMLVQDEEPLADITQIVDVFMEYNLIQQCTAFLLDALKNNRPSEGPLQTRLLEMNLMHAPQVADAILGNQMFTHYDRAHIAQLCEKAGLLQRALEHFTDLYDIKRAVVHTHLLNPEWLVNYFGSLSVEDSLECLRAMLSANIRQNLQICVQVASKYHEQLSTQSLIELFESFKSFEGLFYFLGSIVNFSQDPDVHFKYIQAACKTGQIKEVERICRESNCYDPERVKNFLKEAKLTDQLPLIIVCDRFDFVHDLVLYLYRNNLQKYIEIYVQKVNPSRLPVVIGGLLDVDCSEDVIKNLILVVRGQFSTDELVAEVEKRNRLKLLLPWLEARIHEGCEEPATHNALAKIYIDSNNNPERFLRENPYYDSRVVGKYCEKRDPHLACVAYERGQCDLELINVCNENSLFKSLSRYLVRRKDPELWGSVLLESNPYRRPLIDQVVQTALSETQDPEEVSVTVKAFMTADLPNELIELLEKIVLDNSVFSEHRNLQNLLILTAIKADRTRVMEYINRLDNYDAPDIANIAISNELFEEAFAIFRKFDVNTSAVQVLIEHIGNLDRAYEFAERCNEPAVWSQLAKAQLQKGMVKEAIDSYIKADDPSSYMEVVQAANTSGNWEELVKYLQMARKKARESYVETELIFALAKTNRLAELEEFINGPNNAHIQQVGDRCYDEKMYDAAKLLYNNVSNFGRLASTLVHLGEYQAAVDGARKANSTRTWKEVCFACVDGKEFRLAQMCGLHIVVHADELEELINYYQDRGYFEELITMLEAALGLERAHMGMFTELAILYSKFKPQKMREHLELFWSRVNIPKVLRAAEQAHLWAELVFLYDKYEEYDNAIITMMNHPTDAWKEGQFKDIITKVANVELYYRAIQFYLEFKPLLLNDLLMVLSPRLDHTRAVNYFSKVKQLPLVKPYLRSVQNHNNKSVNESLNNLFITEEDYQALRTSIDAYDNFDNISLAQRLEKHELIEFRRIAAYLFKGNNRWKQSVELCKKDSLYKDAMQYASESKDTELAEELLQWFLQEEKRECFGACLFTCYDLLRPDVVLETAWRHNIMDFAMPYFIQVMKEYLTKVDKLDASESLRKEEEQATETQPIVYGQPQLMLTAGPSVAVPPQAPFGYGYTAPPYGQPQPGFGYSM"}, "EIF3I": {"target": "EIF3I (UniProt Q13347)", "sequence (Q13347 whole entry)": "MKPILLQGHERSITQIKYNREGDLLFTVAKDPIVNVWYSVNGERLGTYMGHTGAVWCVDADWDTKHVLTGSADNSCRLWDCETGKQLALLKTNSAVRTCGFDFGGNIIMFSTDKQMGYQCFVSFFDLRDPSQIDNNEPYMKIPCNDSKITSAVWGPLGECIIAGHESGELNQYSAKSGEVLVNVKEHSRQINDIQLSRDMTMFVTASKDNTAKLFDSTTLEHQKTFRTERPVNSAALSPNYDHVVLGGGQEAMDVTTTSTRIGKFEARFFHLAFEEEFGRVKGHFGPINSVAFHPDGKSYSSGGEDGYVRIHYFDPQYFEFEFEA"}, "CHMP1A": {"target": "CHMP1A (UniProt Q9HD42)"}, "CHMP3": {"target": "CHMP3 (UniProt Q9Y3E7)", "sequence (Q9Y3E7 whole entry)": "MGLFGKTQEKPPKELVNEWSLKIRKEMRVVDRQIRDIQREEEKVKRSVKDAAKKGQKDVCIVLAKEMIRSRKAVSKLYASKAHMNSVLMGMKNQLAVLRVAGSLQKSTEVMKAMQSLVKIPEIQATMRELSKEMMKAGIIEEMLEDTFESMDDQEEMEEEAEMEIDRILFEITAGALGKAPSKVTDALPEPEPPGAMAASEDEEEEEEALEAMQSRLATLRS"}}, "note": "Some entries of the source have several records that differ or are many. This list holds those alone. There may be further records. Some protein pairs were linked at several places, one record each.", "data": [{"substance": "COPS5, Q92905", "values": [{"measurement": "cross-linked residues", "setting": "COPS7B", "result": "K180 - K199 and K309 - K199"}]}, {"substance": "PPIB, P23284", "values": [{"measurement": "cross-linked residues", "setting": "CALR", "result": "K116 - K43 and K116 - K360"}]}, {"substance": "CHMP2A, O43633", "values": [{"measurement": "cross-linked residues", "setting": "CHMP1B", "result": "K89 - K16 and K124 - K87 and K124 - K90"}, {"measurement": "cross-linked residues", "setting": "CHMP2B", "result": "K52 - K180 and K52 - K195 and K89 - K63 and K94 - K37"}]}, {"substance": "DCTN3, O75935", "values": [{"measurement": "cross-linked residues", "setting": "DCTN2", "result": "K32 - K229 and K60 - K297 and K60 - K308 and K66 - K297"}]}, {"substance": "CCT8, P50990", "values": [{"measurement": "cross-linked residues", "setting": "CCT7", "result": "K225 - K366 and K296 - K320 and K459 - K430"}]}, {"substance": "CCT4, P50991", "values": [{"measurement": "cross-linked residues", "setting": "CCT2", "result": "K21 - K40 and K21 - K82 and K21 - K119 and K21 - K120 and K21 - K441 and K21 - K522 and K29 - K40 and K29 - K120 and K29 - K522 and K42 - K46 and K139 - K46 and K395 - K154 and K489 - K135 and K531 - K46"}]}, {"substance": "ACTR1A, P61163", "values": [{"measurement": "cross-linked residues", "setting": "DCTN2", "result": "K230 - K65 and K361 - K65 and K361 - K119 and K361 - K125 and K361 - K132"}]}, {"substance": "CLTB, P09497", "values": [{"measurement": "cross-linked residues", "setting": "CLTC", "result": "K149 - K1264 and K151 - K1501 and K204 - K1246 and K204 - K1516 and K204 - K1535 and K207 - K1516 and K207 - K1612 and K210 - K1612 and K223 - K1535"}]}, {"substance": "EIF3B, P55884", "values": [{"measurement": "cross-linked residues", "setting": "EIF3I", "result": "K693 - K282 and K729 - K282"}]}, {"substance": "CHMP1B, Q7LBR1", "values": [{"measurement": "cross-linked residues", "setting": "CHMP1A", "result": "K30 - K40 and K42 - K27 and K42 - K56 and K59 - K40 and K90 - K98 and K97 - K107 and K110 - K94"}, {"measurement": "cross-linked residues", "setting": "CHMP2B", "result": "K16 - K63 and K16 - K81 and K27 - K63 and K42 - K55 and K42 - K59 and K42 - K180 and K87 - K130 and K90 - K130"}, {"measurement": "cross-linked residues", "setting": "CHMP3", "result": "K16 - K65 and K90 - K132"}]}]}
